# Test results as given in the supplement of paper PMC8728848.
# The list shows a part of the results.
# B1: Gal 9 (Homo sapiens), O00182 (protein)
# chain: MAFSGSQAPYLSPAVPFSGTIQGGLQDGLQITVNGTVLSSSGTRFAVNFQTGFSGNDIAFHFNPRFEDGGYVVCNTRQNGSWGPEERKTHMPFQKGMPFDLCFLVQSSDFKVMVNGILFVQYFHRVPFHRVDTISVNGSVQLSYISFQNPRTVPVQPAFSTVPFSQPVCFPPRPRGRRQKPPGVWPANPAPITQTVIHTVQSAPGQMFSTPAIPPMMYPHPAYPMPFITTILGGLYPSKSILLSGTVLPSAQRFHINLCSGNHIAFHLNPRFDENAVVRNTQIDNSWGSEERSLPRKMPFVRGQSFSVWILCEAHCLKVAVDGQHLFEYYHRLRNLPTINRLEVGGDIQLTHVQT
# Assays:
# Assay in all cases: glycan array binding signal (z-score within array); higher = stronger binding
# Conditions in all cases: glycan notation: IUPAC condensed, linker removed
# Gal(b1-3)GlcNAc = target: Gal(b1-3)GlcNAc
# Summary of the method: (§1)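 Arrays were curated from the Consortium for Functional Glycomics database, 3228 in total, and kept only where the protein sequence was available. Binding is expressed as a within-array Z-score. This score was averaged across arrays of the same protein sequence at different concentrations or buffers and across linkers, and negative values can be read as non-binding.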
# [1] = target: Gal(b1-3)GlcNAc(a1-3)Gal(b1-4)GlcNAc
# Summary of the method: as §1
# [2] = target: Gal(b1-3)GlcNAc(a1-6)Gal(b1-4)GlcNAc
# Summary of the method: as §1
# Gal(b1-3)GlcNAc(b1-2)Man = target: Gal(b1-3)GlcNAc(b1-2)Man
# Summary of the method: as §1
# [3] = target: Gal(b1-3)GlcNAc(b1-2)Man(a1-3)[Gal(b1-3)GlcNAc(b1-2)Man(a1-6)]Man(b1-4)GlcNAc(b1-4)GlcNAc
# Summary of the method: as §1
# [4] = target: Gal(b1-3)GlcNAc(b1-2)Man(a1-3)[Gal(b1-3)GlcNAc(b1-2)Man(a1-6)]Man(b1-4)GlcNAc(b1-4)[Fuc(a1-6)]GlcNAc
# Summary of the method: as §1
# [5] = target: Gal(b1-3)GlcNAc(b1-2)Man(a1-3)[GlcNAc(b1-4)][Gal(b1-3)GlcNAc(b1-2)Man(a1-6)]Man(b1-4)GlcNAc(b1-4)GlcNAc
# Summary of the method: as §1
# [6] = target: Gal(b1-3)GlcNAc(b1-2)[Gal(b1-3)GlcNAc(b1-6)]Man(a1-6)[Gal(b1-3)GlcNAc(b1-2)Man(a1-3)]Man(b1-4)GlcNAc(b1-4)GlcNAc
# Summary of the method: as §1
# [7] = target: Gal(b1-3)GlcNAc(b1-3)Gal(b1-3)GlcNAc
# Summary of the method: as §1
# [8] = target: Gal(b1-3)GlcNAc(b1-3)Gal(b1-4)Glc
# Summary of the method: as §1
# [9] = target: Gal(b1-3)GlcNAc(b1-3)Gal(b1-4)GlcNAc
# Summary of the method: as §1
# [10] = target: Gal(b1-3)GlcNAc(b1-3)Gal(b1-4)GlcNAc(b1-2)Man(a1-3)[Gal(b1-3)GlcNAc(b1-3)Gal(b1-4)GlcNAc(b1-2)Man(a1-6)]Man(b1-4)GlcNAc(b1-4)GlcNAc
# Summary of the method: as §1
# [11] = target: Gal(b1-3)GlcNAc(b1-3)Gal(b1-4)GlcNAc(b1-2)[Gal(b1-3)GlcNAc(b1-3)Gal(b1-4)GlcNAc(b1-6)]Man(a1-6)[Gal(b1-3)GlcNAc(b1-3)Gal(b1-4)GlcNAc(b1-2)Man(a1-3)]Man(b1-4)GlcNAc(b1-4)[Fuc(a1-6)]GlcNAc
# Summary of the method: as §1
# [12] = target: Gal(b1-3)GlcNAc(b1-3)Gal(b1-4)GlcNAc(b1-3)Gal(b1-4)GlcNAc(b1-2)[Gal(b1-3)GlcNAc(b1-3)Gal(b1-4)GlcNAc(b1-3)Gal(b1-4)GlcNAc(b1-6)]Man(a1-6)[Gal(b1-3)GlcNAc(b1-3)Gal(b1-4)GlcNAc(b1-3)Gal(b1-4)GlcNAc(b1-2)Man(a1-3)]Man(b1-4)GlcNAc(b1-4)[Fuc(a1-6)]GlcNAc
# Summary of the method: as §1
# [13] = target: Gal(b1-3)GlcNAc(b1-3)Gal(b1-4)GlcNAc(b1-6)[Gal(b1-3)GlcNAc(b1-3)]Gal(b1-4)Glc
# Summary of the method: as §1
# [14] = target: Gal(b1-3)GlcNAc(b1-3)Gal(b1-4)[Fuc(a1-3)]GlcNAc(b1-6)[Gal(b1-3)GlcNAc(b1-3)]Gal(b1-4)Glc
# Summary of the method: as §1
# [15] = target: Gal(b1-3)GlcNAc(b1-3)GalNAc
# Summary of the method: as §1
# [16] = target: Gal(b1-3)GlcNAc(b1-6)Gal(b1-4)GlcNAc
# Summary of the method: as §1
# [17] = target: Gal(b1-3)GlcNAc(b1-6)GalNAc
# Summary of the method: as §1
# [18] = target: Gal(b1-3)GlcNAc(b1-6)[Gal(b1-3)]GalNAc
# Summary of the method: as §1
# Gal(b1-3)GlcNAc6S = target: Gal(b1-3)GlcNAc6S
# Summary of the method: as §1
# [19] = target: Gal(b1-3)[Fuc(a1-4)]GlcNAc
# Summary of the method: as §1
# [20] = target: Gal(b1-3)[Fuc(a1-4)]GlcNAc(b1-2)Man
# Summary of the method: as §1
# [21] = target: Gal(b1-3)[Fuc(a1-4)]GlcNAc(b1-2)Man(a1-3)[Gal(b1-3)[Fuc(a1-4)]GlcNAc(b1-2)Man(a1-6)]Man(b1-4)GlcNAc(b1-4)GlcNAc
# Summary of the method: as §1
# [22] = target: Gal(b1-3)[Fuc(a1-4)]GlcNAc(b1-2)Man(a1-3)[Gal(b1-3)[Fuc(a1-4)]GlcNAc(b1-2)Man(a1-6)]Man(b1-4)GlcNAc(b1-4)[Fuc(a1-6)]GlcNAc
# Summary of the method: as §1
# [23] = target: Gal(b1-3)[Fuc(a1-4)]GlcNAc(b1-3)Gal(b1-3)[Fuc(a1-4)]GlcNAc
# Summary of the method: as §1
# [24] = target: Gal(b1-3)[Fuc(a1-4)]GlcNAc(b1-3)Gal(b1-4)GlcNAc
# Summary of the method: as §1
# [25] = target: Gal(b1-3)[Fuc(a1-4)]GlcNAc(b1-3)Gal(b1-4)[Fuc(a1-3)]GlcNAc
# Summary of the method: as §1
# [26] = target: Gal(b1-3)[Fuc(a1-4)]GlcNAc(b1-6)GalNAc
# Summary of the method: as §1
# [27] = target: Gal(b1-3)[GlcNAc(b1-6)]GalNAc
# Summary of the method: as §1
# [28] = target: Gal(b1-3)[Neu5Ac(a2-6)]GalNAc
# Summary of the method: as §1
# [29] = target: Gal(b1-3)[Neu5Ac(a2-6)]GlcNAc(b1-4)Gal(b1-4)Glc
# Summary of the method: as §1
# [30] = target: Gal(b1-3)[Neu5Ac(a2-6)]GlcNAc(b1-6)Gal(b1-4)Glc
# Summary of the method: as §1
# [31] = target: Gal(b1-3)[Neu5Ac(b2-6)]GalNAc
# Summary of the method: as §1
# Gal(b1-4)Gal = target: Gal(b1-4)Gal
# Summary of the method: as §1
# [32] = target: Gal(b1-4)GalNAc(a1-3)[Fuc(a1-2)]Gal(b1-4)GlcNAc
# Summary of the method: as §1
# [33] = target: Gal(b1-4)GalNAc(b1-3)[Fuc(a1-2)]Gal(b1-4)GlcNAc
# Summary of the method: as §1
# Gal(b1-4)Glc = target: Gal(b1-4)Glc
# Summary of the method: as §1
# Gal(b1-4)Glc6S = target: Gal(b1-4)Glc6S
# Summary of the method: as §1
# Gal(b1-4)GlcNAc = target: Gal(b1-4)GlcNAc
# Summary of the method: as §1
# [34] = target: Gal(b1-4)GlcNAc(a1-6)Gal(b1-4)GlcNAc
# Summary of the method: as §1
# Gal(b1-4)GlcNAc(b1-2)Man = target: Gal(b1-4)GlcNAc(b1-2)Man
# Summary of the method: as §1
# [35] = target: Gal(b1-4)GlcNAc(b1-2)Man(a1-3)Man(b1-4)GlcNAc(b1-4)GlcNAc
# Summary of the method: as §1
# [36] = target: Gal(b1-4)GlcNAc(b1-2)Man(a1-3)[Gal(b1-4)GlcNAc(b1-2)Man(a1-6)]Man(b1-4)GlcNAc(b1-4)GlcNAc
# Summary of the method: as §1
# [37] = target: Gal(b1-4)GlcNAc(b1-2)Man(a1-3)[Gal(b1-4)GlcNAc(b1-2)Man(a1-6)]Man(b1-4)GlcNAc(b1-4)[Fuc(a1-6)]GlcNAc
# Summary of the method: as §1
binder,measurement,setting,value
B1,glycan array binding signal (z-score),Gal(b1-3)GlcNAc,-0.243
same,glycan array binding signal (z-score),[1],-0.298
same,glycan array binding signal (z-score),[2],-0.294
same,glycan array binding signal (z-score),Gal(b1-3)GlcNAc(b1-2)Man,-0.329
same,glycan array binding signal (z-score),[3],-0.038
same,glycan array binding signal (z-score),[4],-0.31
same,glycan array binding signal (z-score),[5],-0.265
same,glycan array binding signal (z-score),[6],0.612
same,glycan array binding signal (z-score),[7],0.306
same,glycan array binding signal (z-score),[8],0.925
same,glycan array binding signal (z-score),[9],1.04
same,glycan array binding signal (z-score),[10],4.53
same,glycan array binding signal (z-score),[11],0.552
same,glycan array binding signal (z-score),[12],1.17
same,glycan array binding signal (z-score),[13],3.08
same,glycan array binding signal (z-score),[14],1.98
same,glycan array binding signal (z-score),[15],-0.175
same,glycan array binding signal (z-score),[16],-0.199
same,glycan array binding signal (z-score),[17],-0.296
same,glycan array binding signal (z-score),[18],-0.32
same,glycan array binding signal (z-score),Gal(b1-3)GlcNAc6S,-0.257
same,glycan array binding signal (z-score),[19],-0.322
same,glycan array binding signal (z-score),[20],-0.256
same,glycan array binding signal (z-score),[21],0.063
same,glycan array binding signal (z-score),[22],-0.204
same,glycan array binding signal (z-score),[23],-0.31
same,glycan array binding signal (z-score),[24],0.019
same,glycan array binding signal (z-score),[25],-0.309
same,glycan array binding signal (z-score),[26],-0.282
same,glycan array binding signal (z-score),[27],-0.326
same,glycan array binding signal (z-score),[28],-0.315
same,glycan array binding signal (z-score),[29],-0.246
same,glycan array binding signal (z-score),[30],-0.329
same,glycan array binding signal (z-score),[31],-0.32
same,glycan array binding signal (z-score),Gal(b1-4)Gal,-0.315
same,glycan array binding signal (z-score),[32],0.397
same,glycan array binding signal (z-score),[33],-0.33
same,glycan array binding signal (z-score),Gal(b1-4)Glc,-0.325
same,glycan array binding signal (z-score),Gal(b1-4)Glc6S,-0.313
same,glycan array binding signal (z-score),Gal(b1-4)GlcNAc,-0.282
same,glycan array binding signal (z-score),[34],0.387
same,glycan array binding signal (z-score),Gal(b1-4)GlcNAc(b1-2)Man,-0.235
same,glycan array binding signal (z-score),[35],0.635
same,glycan array binding signal (z-score),[36],2.94
same,glycan array binding signal (z-score),[37],0.756
